Some of the results follow.
B1: chr9:95363179:95363180:-_ENSMUSG00000032407_ENSMUST00000079659|mus_hu|motif|central (ssRNA)
RNA: GGGAGUUCUACAGUCCGACGAUCUGAUCGCCUAGACCUUUUAGGUGUCCUUGAACCAGAUGGUGAUCUUUUGGCUUUUUUGCGGACAUCUCUAGGAGAAUCUUUGUGAGAUGACCUGGACCGUGAGCUCUCUUUAUGAGAUCUCAACAGAGGAUUGAGCAUCA
B2: chr11:68836070:68836071:+_ENSMUSG00000020898_ENSMUST00000116359|mus_hu|FALSE|FALSE (ssRNA)
RNA: GGGAGUUCUACAGUCCGACGAUCUCUCACAUAGAGGCUUCCGUUCCUGCACUCUUGUUCCAAGUCUGCCGAUAGGUCUGUUAGUGUCCCUAAAAGUAACAGCUGCUCUCGGGGCAGGGGGUUCCCAUUUGGUCCAGCCUCUUGCAACAGAGGAUUGAGCAUCA
B3: chr5:21408736:21408737:-_ENSMUSG00000042453_ENSMUST00000161356|mus_hu|mus_mus_mus_hu_False|48_108 (ssRNA)
RNA: GGGAGUUCUACAGUCCGACGAUCGUUGACAGCAUUAUAGAUGGUGGCUUCAUGGAACUGGAAAGGGGAGCAGCCAAUGCUGUUAGAAGAGGAAGGUAGGCACUGGGUCUGUACGAGCUGCCAGGAAUCCGAUCUUGCAUCCUUCAACAGAGGAUUGAGCAUCA
B4: chr15:95746395:95746396:+_ENSMUSG00000064210_ENSMUST00000071874|mus_hu|FALSE|FALSE (ssRNA)
RNA: GGGAGUUCUACAGUCCGACGAUCCCAUUCUCUGUACAGAAGGUACCGUUCAUUAGGGCAGCUGGGAUCCUCUGACUGACGGCGGAAUUUGCAAUCAUGGAGUGGGAAAGCUGCCUUGUAGAUCCCAGAGUUUACAAGUCUGUUCAACAGAGGAUUGAGCAUCA
B5: chr4:17845017:17845018:+_ENSG00000109805_ENST00000514176|hu_mus|hu_hu_hu_mus_False|48_48 (ssRNA)
RNA: GGGAGUUCUACAGUCCGACGAUCGCUCUCUUAACUUGUAUCUUCAUUAAGGAACUCUGCAAGGUUAAGUUUACUUUUCUGUAGCGCGCGGUUUUGGGCUCGUCUGGGUAAUCUCAUCUUCAUUUCUGAUGGUGGUUCAUGAUCCAACAGAGGAUUGAGCAUCA
B6: chr16:46990514:46990515:-_ENSG00000069345_ENST00000317089|hu_mus|motif|central (ssRNA)
RNA: GGGAGUUCUACAGUCCGACGAUCCAAACCCAUUGUGUGCAAAGCCCAUUUUUCCAUGCAUCUAAAUGAUAGAUACAGGCGGUGAAUUCUUUAUUCUAUUUGUAGCAGCUUAUGCAGGUGCAGCCAAACACAAAGCUUCAGGACCAACAGAGGAUUGAGCAUCA

These binders were tested against T1, UNK ZnF1-3 (human, UniProt Q9C0B0 31-174) (assay: nsRBNS (natural sequence RNA bind-n-seq); RBNS binding buffer (assumed for nsRBNS): 25 mM Tris pH 7.5, 150 mM KCl, 3 mM MgCl2, 0.01% Triton X-100, 500 ug/ml BSA, 20 U/ml SUPERase-In, 4 C; UNK is unkempt and MSI1 is Musashi-1; names of the RNAs are library labels; protein concentration not given here; high values mean tight binding).
T1 sequence: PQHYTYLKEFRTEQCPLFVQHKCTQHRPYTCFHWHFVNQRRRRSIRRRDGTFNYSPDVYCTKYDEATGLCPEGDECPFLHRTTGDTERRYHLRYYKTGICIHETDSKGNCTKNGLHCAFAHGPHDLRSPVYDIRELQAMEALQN

Row | Binder | binding signal [enrichment R]
1 | B1 | 0.35
2 | B2 | 0.949
3 | B3 | 1.5
4 | B4 | 0.741
5 | B5 | 0.367
6 | B6 | 1.29

Source: publication PMC12136788
